This is one part of the list.

To fix the notation:
B1: PhoQ; a variant is named by its letters at X, in order, P23837 (parent)
chain: MKKLLRLFFPLSLRVRFLLATAAVVLVLSLAYGMVALIGYSVSFDKTTFRLLRGESNLFYTLAKWENNKLHVELPENIDKQSPTMTLIYDENGQLLWAQRDVPWLMKMIQPDWLKSNGFHEIEADVNDTSLLLSGDHSIQQQLQEVREDDDDAEMTHSVAVNVYPATSRMPKLTIVVVDTIPVELKSSYMVWSWFIYVLSANLLLVIPLLWVAAWWSLRPIEALAKEVRELEEHNRELLNPATTRELTSLVRNLNRLLKSERERYDKYRTTLTDLTHSLKTPLXXLQXXLRSLRSEKMSVSDAEPVMLEQISRISQQIGYYLHRASMRGGTLLSRELHPVAPLLDNLTSALNKVYQRKGVNISLDISPEISFVGEQNDFVEVMGNVLDNACKYCLEFVEISARQTDEHLYIVVEDDGPGIPLSKREVIFDRGQRVDTLRPGQGVGLAVAREITEQYEGKIVAGESMLGGARMEVIFGRQHSAPKDE

The variants in this assay derive from B1. The assay can be described thus: enrichment ratio after two sorts for PhoP signalling (ratio (wild type AVST 3.29)); higher = more functional. The note with it: with PhoP (E. coli).
With HTKW, the enrichment ratio was no more than 0.25.

As for MNDR, the enrichment ratio was no more than 0.25.

As for RIIP, the enrichment ratio was no more than 0.25.

For the variant SVLA, the enrichment ratio was 7.25.

For YWDH, the enrichment ratio is no more than 0.25.

TWHC: the enrichment ratio is no more than 0.25.

As for VTFV, the enrichment ratio is no more than 0.25.

As for VPLL, the enrichment ratio was no more than 0.25.

Turning to KAIS, the enrichment ratio is no more than 0.25.

ADIS: the enrichment ratio is no more than 0.25.

For VHHS, the enrichment ratio is no more than 0.25.

Take VSCV: the enrichment ratio worked out at 7.54.

For LCVG, the enrichment ratio is no more than 0.25.

MRDF: the enrichment ratio was no more than 0.25.

Turning to DNWI, the enrichment ratio was no more than 0.25.

Turning to RTNR, the enrichment ratio is no more than 0.25.

Consider LYCI, for which the enrichment ratio is no more than 0.25.

Regarding TCHT, the enrichment ratio was no more than 0.25.

Regarding GEQP, the enrichment ratio is no more than 0.25.

On to KLGE, for which the enrichment ratio is no more than 0.25.

For KTWS, the enrichment ratio was no more than 0.25.

With YGLD, the enrichment ratio is no more than 0.25.

Consider HPQV, for which the enrichment ratio was no more than 0.25.

WIHT: the enrichment ratio is no more than 0.25.

With WQVM, the enrichment ratio was no more than 0.25.

With RFFW, the enrichment ratio was no more than 0.25.

Turning to AERP, the enrichment ratio is no more than 0.25.

As to FFLD, the enrichment ratio is no more than 0.25.

In the case of MLDS, the enrichment ratio was no more than 0.25.

For the variant VSNL, the enrichment ratio was no more than 0.25.

Consider TSTN, for which the enrichment ratio worked out at 4.72.

Turning to HFYA, the enrichment ratio is no more than 0.25.

Take EYFL: the enrichment ratio is no more than 0.25.

As for MDME, the enrichment ratio was no more than 0.25.

Regarding IDPL, the enrichment ratio was no more than 0.25.

For VGDG, the enrichment ratio is no more than 0.25.

For YTIP, the enrichment ratio is no more than 0.25.

For NTTA, the enrichment ratio is no more than 0.25.

Consider RTPQ, for which the enrichment ratio is no more than 0.25.

As for VDKE, the enrichment ratio was no more than 0.25.

With EPIQ, the enrichment ratio is no more than 0.25.

Regarding ADRL, the enrichment ratio was no more than 0.25.

For the variant QIMV, the enrichment ratio is no more than 0.25.

As to KEAS, the enrichment ratio was no more than 0.25.

On to RSPY, for which the enrichment ratio was no more than 0.25.

As to PFWN, the enrichment ratio is no more than 0.25.

Consider VVSM, for which the enrichment ratio is 0.673.

Regarding EPTT, the enrichment ratio was no more than 0.25.

For the variant GGPM, the enrichment ratio is no more than 0.25.

For FKTT, the enrichment ratio was no more than 0.25.

With VHTA, the enrichment ratio is no more than 0.25.

For AQAS, the enrichment ratio is 18.6.

In the case of TDCL, the enrichment ratio was found to be 1.96.

In the case of AKAW, the enrichment ratio is no more than 0.25.

As for WKTP, the enrichment ratio is no more than 0.25.

For the variant IGFM, the enrichment ratio is no more than 0.25.

For AHSC, the enrichment ratio was no more than 0.25.

For SMDY, the enrichment ratio is no more than 0.25.

QFDF: the enrichment ratio is no more than 0.25.

As to MPWG, the enrichment ratio was no more than 0.25.

For the variant VQRV, the enrichment ratio is no more than 0.25.

With YKQI, the enrichment ratio was no more than 0.25.

As for SVWY, the enrichment ratio is no more than 0.25.

In the case of LFGS, the enrichment ratio is no more than 0.25.

With SPHW, the enrichment ratio is no more than 0.25.

Regarding APMH, the enrichment ratio is no more than 0.25.

Take IYHC: the enrichment ratio is no more than 0.25.

As for KTWC, the enrichment ratio was no more than 0.25.

On to ATVL, for which the enrichment ratio is 4.07.

As to TKPE, the enrichment ratio is no more than 0.25.

With LAWE, the enrichment ratio was no more than 0.25.

As for ACAC, the enrichment ratio was no more than 0.25.

Take SCHS: the enrichment ratio was no more than 0.25.

Regarding LMWQ, the enrichment ratio is no more than 0.25.

Consider HTGI, for which the enrichment ratio was no more than 0.25.

Consider THQM, for which the enrichment ratio was no more than 0.25.

As for MPIA, the enrichment ratio was no more than 0.25.

As for QPEA, the enrichment ratio is no more than 0.25.

As to EALE, the enrichment ratio was no more than 0.25.

On to RDRI, for which the enrichment ratio was no more than 0.25.

Consider YITT, for which the enrichment ratio was 0.342.

As for IFWY, the enrichment ratio was no more than 0.25.

With LRVM, the enrichment ratio is no more than 0.25.

Consider MTYQ, for which the enrichment ratio was 2.5.

As to TTFK, the enrichment ratio is no more than 0.25.

DEKH: the enrichment ratio was no more than 0.25.

As to RVKR, the enrichment ratio stood at 4.54.

Take LQSY: the enrichment ratio is no more than 0.25.

Turning to AECK, the enrichment ratio is no more than 0.25.

For the variant YYQV, the enrichment ratio is no more than 0.25.

Take MRFM: the enrichment ratio is no more than 0.25.

Consider NCRT, for which the enrichment ratio was no more than 0.25.

Take WFYP: the enrichment ratio was no more than 0.25.

On to NTEH, for which the enrichment ratio is no more than 0.25.

On to IDMA, for which the enrichment ratio was no more than 0.25.

For ADNV, the enrichment ratio was no more than 0.25.

For the variant LEAS, the enrichment ratio is 1.71.

As for FKFQ, the enrichment ratio is no more than 0.25.

On to YPQV, for which the enrichment ratio is no more than 0.25.

With SAID, the enrichment ratio was no more than 0.25.

In the case of STCW, the enrichment ratio amounted to 9.07.

With NFDV, the enrichment ratio is no more than 0.25.

On to SNEF, for which the enrichment ratio was no more than 0.25.

WGLI: the enrichment ratio is 13.6.

On to HQFL, for which the enrichment ratio was no more than 0.25.

Regarding RVST, the enrichment ratio was no more than 0.25.

For QRRQ, the enrichment ratio is no more than 0.25.

Regarding IGVA, the enrichment ratio was no more than 0.25.

As for IPQS, the enrichment ratio is no more than 0.25.

Consider DQHA, for which the enrichment ratio was no more than 0.25.

For the variant TDAD, the enrichment ratio was no more than 0.25.

As to RIEY, the enrichment ratio was no more than 0.25.

On to VAME, for which the enrichment ratio is no more than 0.25.

For PICK, the enrichment ratio is no more than 0.25.

For the variant TGRR, the enrichment ratio was no more than 0.25.

QFNM: the enrichment ratio was no more than 0.25.

With RYAC, the enrichment ratio was no more than 0.25.

As to PFDP, the enrichment ratio is no more than 0.25.

For the variant EKHD, the enrichment ratio is no more than 0.25.

On to AWNI, for which the enrichment ratio was no more than 0.25.

As to LIWN, the enrichment ratio was no more than 0.25.

For TVHM, the enrichment ratio was no more than 0.25.

For DACR, the enrichment ratio was no more than 0.25.

As to FMTK, the enrichment ratio is no more than 0.25.

In the case of QARA, the enrichment ratio is no more than 0.25.

LKTI: the enrichment ratio was no more than 0.25.

On to GKVQ, for which the enrichment ratio was no more than 0.25.

In the case of VNII, the enrichment ratio is no more than 0.25.

On to VQAW, for which the enrichment ratio is no more than 0.25.

As to DPYD, the enrichment ratio is no more than 0.25.

CHFF: the enrichment ratio is no more than 0.25.

As to GFLM, the enrichment ratio came out at 2.69.

As for GKYI, the enrichment ratio is no more than 0.25.

For QPVT, the enrichment ratio is no more than 0.25.

As to ITFM, the enrichment ratio is no more than 0.25.

Take LQIR: the enrichment ratio was no more than 0.25.

Consider NTIM, for which the enrichment ratio was no more than 0.25.

In the case of MQDP, the enrichment ratio is no more than 0.25.

For the variant ATDE, the enrichment ratio was no more than 0.25.

Consider ESVI, for which the enrichment ratio was no more than 0.25.

As to YYTF, the enrichment ratio is no more than 0.25.

On to PRHI, for which the enrichment ratio is no more than 0.25.

In the case of DRTG, the enrichment ratio was no more than 0.25.

For the variant MAIY, the enrichment ratio was no more than 0.25.

MCRN: the enrichment ratio is no more than 0.25.

Take VYHT: the enrichment ratio is no more than 0.25.

Turning to ATKF, the enrichment ratio was no more than 0.25.

In the case of ENSV, the enrichment ratio was no more than 0.25.

For the variant VHKW, the enrichment ratio is no more than 0.25.

Consider ELAR, for which the enrichment ratio was no more than 0.25.

For PIPC, the enrichment ratio was no more than 0.25.

Regarding LEHT, the enrichment ratio was no more than 0.25.

On to MTNF, for which the enrichment ratio was 3.09.
